From PubChem BioAssay (NCI)
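Results reflect a 48-hour exposure of cells in 96-well plates to compound at five concentrations. At the GI50, growth is halved. TGI: concentration producing complete growth inhibition.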 Numbered stars: 1 amine (or outer) side, 2 acyl side, 3 side chain; on linkers, the order of the positions; unused ones are H or OH. Bridge positions count the residues as written; N and C are the ends. Square brackets hold non-standard residues; d marks the D form. Peptide text beside a SMILES is read from it. I, II: the chains in the order shown. Actinocin(9to1) = Cc1c2oc3c(C)ccc(C(=O)[*:1])c3nc-2c(C(=O)[*:2])c(N)c1=O; NMeV = CN[CH](C(=O)O)C(C)C; Sar = CNCC(=O)O

Each compound was assayed on NCI-H322M lung (assay: NCI tumour cell line growth inhibition, 48 h).

SMILES | TGI [µM] | GI50 [µM]
Clc1ccc2cccc3c2c1C1OC3c2ccccc21 (centres undefined) | > 100 | 
CCN(CC)CCCNC(=O)c1cc(-c2nccn2C)nc2ccccc12 | > 100 | 
CN(C)CC1CCC/C1=N/OC(=O)c1ccccc1 (centres undefined) | > 100 | 
CC1(C)CC(c2c[nH]c3ccccc23)=CC2=Nc3ccccc3C21O (centres undefined) | > 100 | 
CCn1cnc2c(=S)nc(N)[nH]c21 | > 100 | 
COCCn1cc(-c2nc(-c3cc4cccnc4[nH]3)cs2)c2cc(OC)ccc21 | > 46.2 | 2.28
CCCCCCCCCCSC(=N)N (tested in a mixture with another compound) | 26.1 | 12.7
Cc1[nH]c(=O)nc2sc(=NC3CCCCC3)n(C3CCCCC3)c(=O)c12 | > 100 | 
O=C1c2cc3c(cc2CC12Cc1ccc4c(c1C2=O)CCC4)CCCC3 (centres undefined) | > 100 | 
CCOc1ccc(NC2=CC(=O)C(=O)c3ccccc32)cc1 | 17.9 | 
N#Cc1nc(-c2cnccn2)oc1N | > 100 | 
C=C(C)C(=O)O[C@@H]1C[C@@]2(C)O[C@@H]2C[C@H](O)/C(C)=C/[C@H]2OC(=O)C(=C)[C@@H]21 | > 100 | 
Cc1ccc(-c2nc(N3CCNCC3)c3oc(-c4ccc(C)cc4)nc3n2)cc1 | 3.26 | 1.78
Cc1ccc(S(=O)(=O)N2CCC2c2ccccc2)cc1 (centres undefined) | > 100 | 
CN(C)CC(O)c1ccc(/C=C/c2ccc(Cl)cc2)cc1 (centres undefined) | 3.16 | 1.53
Cc1cc(Nc2ccc(C)c(Cl)c2)n2nc(C(F)(F)F)nc2n1 | > 100 | 38
COc1cc(OCCN(C)C)c2[nH]c(C(=O)N3CC(CCl)c4ccc(N)cc43)cc2c1 (centres undefined) | 11.9 | 
C=C1C(=O)O[C@@H]2/C=C(C)/C=C\[C@@H]3O[C@@]3(C)C[C@@H](O)C12 (some centres undefined) | > 100 | 
CC(C)(CN1CCCCC1)C(/C=C/c1ccc(Cl)cc1)=N\NC(=O)N/N=C(/C=C/c1ccc(Cl)cc1)C(C)(C)CN1CCCCC1 | 25 | 
C=C(C)C12OC1[C@@]1(C)C(=CC2=O)CCC(O)[C@@H]1C (some centres undefined) | 25.2 | 
O=C(Nc1c(O)[nH]c(=S)[nH]c1=O)c1ccccc1 | > 100 | 
CC1=C/C(=N\NC(N)=S)C(C(O)(C(F)(F)F)C(F)(F)F)C(C)(C)C1 (centres undefined) | > 10 | 
COc1ccc(C2Oc3cc(OC)c(OC)cc3C2CCl)cc1OC (centres undefined) | > 100 | 
COc1cc(C2C(Cl)C(=O)N2n2cnc3ccccc3c2=O)ccc1O (centres undefined) | > 100 | 

SMILES | TGI [µM] | GI50 [µM]
O=C1c2cccc3cc([N+](=O)[O-])cc(c23)C(=O)N1Nc1ccc([N+](=O)[O-])cc1[N+](=O)[O-] | > 100 | 
CC(=O)CC1CCC(=O)/C=C/C(=O)OC(CC(C)=O)CCC(=O)/C=C/C(=O)O1 (centres undefined) | 37.7 | 
COc1c2ccccc2c(OC)c2[nH]c(=O)ccc12 | 3.44 | 1.83
O=C1c2c(F)c(F)c(F)c(F)c2C(=O)N1c1ccc(F)cc1F | 39.5 | 20.8
CCOC(=O)C(=[N+]=[N-])C(=O)CN1C(=O)c2ccccc2C1=O | > 100 | 
CCOC(=O)C12OC(OCC)(CC1(OCC)OCC)C1(CC1)C2=O (centres undefined) | > 100 | 
COc1ccc(C(C)NNC(=O)c2ccncc2)cc1OC (centres undefined) | > 100 | 
CON(C)C(=O)C(C)N(Cc1ccccc1)Cc1ccccc1 (centres undefined) | > 100 | 
Cc1ccc(Nc2nc(NNC(=O)Cc3ccccc3)nc(NNC(=O)c3ccncc3)n2)cc1 | > 10 | 
Cc1c2oc3c(C)ccc(C(=O)NC4C(=O)NC(C(C)C)C(=O)N5CCCC5C(=O)N(C)CC(=O)N(C)C(C(C)C)C(=O)OC4C)c3nc-2c(C(=O)NC2C(=O)NC(C(C)C)C(=O)N3CCCC3C(=O)N(C)CC(=O)N(C)C(C(C)C)C(=O)OC2C)c(N)c1=O (centres undefined) (I: TVP[Sar][NMeV] / II: TVP[Sar][NMeV]; ester I:1-I:C, II:1-II:C; linker I:N-II:N via Actinocin(9to1); configuration not given here) | 0.0499 | 
N#CSC#CCCC#CSC#N | 44.9 | 
CN1CCN(c2ccc(Nc3ncc(Cl)c(NC[C@@H]4CCCO4)n3)cc2)CC1 | > 100 | 2
CCCCCCCCCCCCNC(=S)OC | 66.1 | 
CCC(C)SC1SCC2C(=O)N(C)C3(CC3C)C(=O)OCC(NC(=O)c3nc4ccccc4cc3O)C(=O)NC(C)C(=O)N(C)C1C(=O)N(C)C1(CC1C)C(=O)OCC(NC(=O)c1nc3ccccc3cc1O)C(=O)NC(C)C(=O)N2C (centres undefined) | 0.000485 | 
CCCCCCOc1ccc(/C=N/Nc2cc(C)nc3ccc(Cl)cc23)cc1 | 3.13 | 1.7
C[C@@]1(O)CC[C@]2(C)C3CCCC3[C@H]12 (some centres undefined) | > 100 | 
C#Cc1cccc(Nc2nc3cc([N+](=O)[O-])ccc3nc2Nc2ccc(O)cc2)c1 | 4.7 | 1.66
Cc1nn(C(=O)Cc2ccccc2)c2c1C(c1ccccc1)SC(N)=N2 (centres undefined) | > 100 | 
COc1ccc(C2=CC(C(C)=C(C(N)=O)C(N)=O)C=C(c3ccc(Br)cc3)C2)c(OC)c1 (centres undefined) | > 100 | 
O=S1C(=c2ccc(=C3Sc4ccccc4S3)cc2)Sc2ccccc21 (centres undefined) | 32.1 | 
COc1ccc(C2c3cc4c(cc3OC3(OC)COC(=O)C23)OCO4)c(OC)c1 (centres undefined) | > 100 | 
O=C1OCC2=C1C(c1cccc(Br)c1)c1cc3c(cc1N2CCO)OCCO3 (centres undefined) | > 50 | 0.418
[O-][Cl+3]([O-])([O-])[O-].[O]=[Ru]=[O].c1ccc(-c2ccccn2)nc1.c1ccc(-c2ccccn2)nc1 | > 100 | > 100
